For 69 compounds, z-score results are on record in PubChem BioAssay AID488969 (Vanderbilt High Throughput Screening Facility, 2010).

In all, about 110,000 compounds were measured (“z-score”: median about -0.1, highest 2% from about 2 on). Some of the results follow. Calls of active or inactive are those of the source.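 The calls were made as follows: active = z-score in the third read window above 3 or below -3; inactive = the rest.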

This test has as its target Metabotropic glutamate receptor 8 (Rattus norvegicus) (UniProt P70579). As to the kind of experiment: mGluR8 Gi/Go-coupled signaling modulation – cell-based, rat, thallium flux, HTS, primary screen (AID 488969). The settings on record: HEK293 rat mGluR8, GIRK (G protein-gated inwardly rectifying potassium channel) thallium flux, FluoZin2; at 10 µM; stronger effect = higher value; submaximal glutamate (EC20) added with thallium.
Chain of UniProt P70579 (P70579 whole entry, looked up): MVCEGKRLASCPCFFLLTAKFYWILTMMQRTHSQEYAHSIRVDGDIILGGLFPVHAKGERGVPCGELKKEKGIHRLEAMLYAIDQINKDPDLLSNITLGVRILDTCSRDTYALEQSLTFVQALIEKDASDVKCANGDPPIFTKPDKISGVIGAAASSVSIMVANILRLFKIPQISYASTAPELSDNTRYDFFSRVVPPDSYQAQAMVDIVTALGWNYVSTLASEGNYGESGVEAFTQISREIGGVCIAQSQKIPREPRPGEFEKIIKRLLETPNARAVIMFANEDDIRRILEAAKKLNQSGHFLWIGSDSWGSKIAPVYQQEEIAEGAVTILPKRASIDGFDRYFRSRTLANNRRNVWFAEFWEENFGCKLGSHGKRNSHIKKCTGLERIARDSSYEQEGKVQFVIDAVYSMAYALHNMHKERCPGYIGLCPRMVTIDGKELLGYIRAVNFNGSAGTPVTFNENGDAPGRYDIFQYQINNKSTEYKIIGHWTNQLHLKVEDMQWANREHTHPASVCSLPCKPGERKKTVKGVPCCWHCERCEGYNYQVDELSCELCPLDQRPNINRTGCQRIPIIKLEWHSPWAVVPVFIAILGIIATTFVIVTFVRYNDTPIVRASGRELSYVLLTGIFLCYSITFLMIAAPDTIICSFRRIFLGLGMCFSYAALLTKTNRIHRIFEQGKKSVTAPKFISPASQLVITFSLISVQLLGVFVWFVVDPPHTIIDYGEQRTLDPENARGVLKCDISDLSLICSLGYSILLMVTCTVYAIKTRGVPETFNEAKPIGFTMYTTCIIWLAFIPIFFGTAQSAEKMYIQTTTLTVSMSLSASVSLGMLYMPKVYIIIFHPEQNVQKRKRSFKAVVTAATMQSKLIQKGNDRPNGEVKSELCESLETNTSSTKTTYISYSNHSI
Compound `COc1ccc(-n2c(SCc3nnc(-c4ccccc4)o3)nnc2-c2ccccc2)cc1` had a z-score of -0.24.

In the case of `COC(=O)Nc1ccc(S(=O)(=O)N2CCCc3ccccc32)cc1`, the z-score came to 0.814. With `O=C(CN1CCN(CC(=O)Nc2ccccn2)CC1)Nc1ccccn1` the figure was -0.212; with `CCC(CC)=NNC(=O)c1ccccc1OCc1ccc(F)cc1`, -0.381. For `CSc1nc2sc3c(c2c(=O)[nH]1)CCC(C)C3` (centres undefined), the z-score is 0.17.

Regarding `CC(C)C[C@H](NC(=O)OC(C)(C)C)C(=O)N/N=C/c1ccc2nccnc2c1`, the z-score was -0.19. For `C=C(C)C1CC=C(C)/C(=N/NC(=O)COc2cccc(C)c2)C1` (centres undefined) the value was active: 8.9; for `Cc1ccc(-c2nnc(-c3ccc(NC(=O)c4cccs4)cc3)o2)cc1`, -0.0655; for `CN(C)S(=O)(=O)c1ccc(NC(=O)CSc2ncnc3ccccc23)cc1`, -0.779.

`CCOc1nc(NCCc2ccc(OC)c(OC)c2)nc(N2CCN(c3ccc(OC)cc3)CC2)n1`: the z-score came out at 0.0164.

The compound `CCN(CC)C(=O)c1c2c(nc3ccccc13)-c1ccccc1CC2` came in with a z-score of -0.522. As for `CCNC(=O)C1CC(=O)N(Cc2ccc(F)cc2)C(=Nc2ccc(OC)cc2)S1` (centres undefined), the z-score is -0.481. With `CCN=c1sc(C(=O)OC)cc(=O)n1CC` the figure was -0.358; with `CN(C)C(=O)c1cc(Cl)ccc1Sc1cc(Cl)ccc1Cl`, 0.0382.

Turning to `CN1CCN(c2ccc(NC(=O)Cc3ccccc3)cc2)CC1`, the z-score turned out to be 0.552. In the case of `COc1ccc(CN(C(=S)Nc2ccccc2)C2CC(=O)N(c3ccc(F)cc3)C2=O)cc1` (centres undefined), the z-score was -0.141. `CCOC(=O)NN1C(=O)c2ccccc2NC1c1ccccc1` (centres undefined) showed a z-score of -0.112. For `CCN(CC)c1ccc(NC(=O)Nc2ccc(C(C)=O)cc2)cc1` the value was 0.209; for `COc1ccc2c(c1)C1NC(=S)NC(C)(O2)C1C(=O)Nc1ccc(Cl)cc1` (centres undefined), -0.5; for `COC(=O)CCC(=O)Nc1ccc(S(=O)(=O)N2CCCCCC2)cc1`, 0.281. With `Nc1nc(Br)c2c(F)cccc2c1-c1ccc(F)cc1` the figure was 0.0126; with `Cc1cccc(-c2c3c(=O)n(C)c(=O)n(C)c3cn2C2CCCCC2)c1`, -0.809.

`COc1ccc(/C=C/C(=O)NC(=S)NNC(=O)c2cccnc2)cc1` had a z-score of -0.12. In turn, `Cc1cc(=O)oc2cc(Oc3ccc([N+](=O)[O-])cc3[N+](=O)[O-])ccc12` displayed a z-score of 0.0534.

On to `Cc1c(N2C(=O)c3ccccc3C2=O)c(=O)n(-c2ccccc2)n1C`, for which the z-score amounted to 0.287.

In turn, `N#Cc1cnn(-c2ccccc2)c1N` had a z-score of 0.286. Compound `COc1cccc(CNC(=O)Cc2ccc(Br)cc2)c1` had a z-score of -0.136.

As for `O=C(Nc1ccccc1)N(Cc1ccc(Cl)cc1)CC(O)C(F)(F)F` (centres undefined), the z-score was determined as 0.189. With `Cc1cc(Cl)c(S(=O)(=O)NCc2cccnc2)cc1OCC(=O)NC1CCCCC1` the figure was -0.0894; with `CCOc1ccc(-c2ccc(C=O)o2)c([N+](=O)[O-])c1`, -0.55; with `CCC(NC(=O)C1CCC1)c1ccccc1` (centres undefined), -0.0824. For `C=C(C)COc1ccc2c(C)c(CC(=O)OC)c(=O)oc2c1C` the value was -0.319; for `CCNc1nnc(-c2ccc(C)cc2)o1`, 2.74; for `Cc1nc2ccc(Nc3nc4cc(S(=O)(=O)N5CCOCC5)ccc4o3)cc2s1`, -0.359. With `O=C(COc1ccc(Cl)cc1)N1CCN(c2ccc([N+](=O)[O-])c(N3CCOCC3)c2)CC1` the figure was -0.0381; with `Cc1ccc2cccc(NC(=O)c3ccc(Br)o3)c2n1`, -0.503. Turning to `O=C(NCc1ccccc1)Nc1cccn(Cc2cccc(F)c2)c1=O`, the z-score was -0.0902. As to `CCCCOc1ccc(-c2ncc(Cl)cn2)cc1`, the z-score is -0.335.

For `O=C(O)c1cc(-c2ccccc2)n(-c2ccccc2)n1`, the z-score is 0.0224. With `COc1ccc(N2C(=O)c3ccccc3NC23CCCCC3)cc1` the figure was -0.554; with `COc1ccc(CCNc2oc(-c3ccc(OC)c(OC)c3)nc2P(=O)(OC)OC)cc1OC`, -0.308; with `COc1ccc(CCNC(=O)c2c(O)c3c([nH]c2=O)CCCC3)cc1`, -0.378. Compound `CC1CC(c2ccccc2)n2nc(N3C(=O)c4ccccc4C3=O)nc2N1` (centres undefined) gave a z-score of 1.04. Take `COc1cc(-c2nc3ccccn3c2/N=C/c2cc(OC)c(OC)c(OC)c2)ccc1O`: the z-score is -0.685.

Compound `O=C(Nc1nc(-c2ccccc2)c(-c2ccccc2)s1)c1ccc(S(=O)(=O)N2CCCC2)cc1` displayed a z-score of -0.193.

In the case of `COc1ccc(NC(=O)/C(C#N)=C\c2cc(C)n(-c3ccc(Oc4ccc([N+](=O)[O-])cn4)cc3)c2C)cc1`, the z-score came out at 0.0192.

`CCOC(=O)Nc1ccc2c(c1)Sc1ccccc1N2C(=O)CCN1CCOCC1` returned a z-score of 0.597. With `Cc1ccc(OCc2nnc(SCc3cc(=O)[nH]c4ccccc34)n2-c2ccccc2)cc1` the figure was -0.236; with `COc1ccc(Cl)cc1-c1nc(-c2ccc(Br)o2)no1`, -0.0916.

`CN(C)CCNC(=O)C(C(=O)c1ccc(F)cc1)n1ccccc1=O` (centres undefined) yielded a z-score of 0.832.

In turn, `C=CCn1c(SCc2ccc(C(=O)Nc3ccccc3)cc2)nnc1-c1ccccc1` registered a z-score of -0.127. With `Cc1ccc(-c2noc(CSc3nnc(-c4ccccc4)n3C)n2)cc1` the figure was -0.179. For `CC(C)C[C@H](NC(=O)OC(C)(C)C)c1nnc(SCc2ccccc2)o1` the value was -1.44; for `O=C(/C=C/Nc1ccc(F)cc1)c1ccco1`, -0.125; for `CCOc1ccc2[nH]c(=O)c(CN(Cc3nnnn3Cc3ccccc3)CC3CCCO3)cc2c1` (centres undefined), -0.254. With `Cc1cccc(C(=O)NC(=S)Nc2ccc(S(=O)(=O)N3CCCCC3)cc2)c1` the figure was -0.0168.

For the compound `CNC(=O)c1ccc(-n2nc(C)cc2-c2ccccc2)cc1`, the z-score was -0.167. For `COc1ccc(/C=N/NC(=O)CCCCCNC(=O)c2ccccc2)cc1` the value was -0.242.

With `CCCC(=O)Nc1ccccc1NC(=O)CCC`, the z-score was found to be 0.00845.

In turn, `CC(C)CNC(=O)c1ccccc1SCC(=O)NC12CC3CC(CC(C3)C1)C2` showed a z-score of -0.295. With `COc1ccc(CCNC(=O)COc2ccc(-c3ccccc3)cc2)cc1OC` the figure was -0.348; with `CCOC(=O)C1CCCN(C(=O)c2sc3nc(C)nc(N(CC)CC)c3c2C)C1` (centres undefined), -0.328. With `Brc1cnc(N2CCCCC2)nc1N1CCOCC1` the figure was -0.468. For `CCCCNC(=O)n1c(=O)oc2ccc(Cl)cc21` the value was -0.0975.

The compound `CCN(CC)S(=O)(=O)c1ccc(OC)c(NS(=O)(=O)c2ccc(F)cc2)c1` yielded a z-score of -0.405.

On to `O=S(=O)(Nc1ccc(F)cc1)c1ccc(NC(=S)Nc2ccccc2)cc1`, for which the z-score is -0.128.

As to `Cc1cc(C)cc(N(C(=O)CNS(=O)(=O)c2ccccc2)C(C(=O)NCc2ccccc2)c2ccc(C)o2)c1` (centres undefined), the z-score is -0.187.

`CC(C)(C)C(=O)c1cnc(Nc2ccccc2)s1` came in with a z-score of 0.112.

Take `Cc1ccc(S(=O)(=O)N2CCN(S(=O)(=O)N(C)C)CC2)cc1`: the z-score stood at 0.217.
